Measurements: PubChem BioAssay AID485297 (National Center for Advancing Translational Sciences (NCATS), 2010)
In all, about 320,000 compounds went through this assay and about 9,100 (2.8%) were called active. This list was built around the results that the source calls inconclusive (neither active nor inactive); the mix of calls is not that of the screen. Calls come from the whole dose curve; as a rule, active = well fitted activation curve with a large enough effect; inconclusive = small, poorly fitted or top-dose-only effect; inactive = no such curve, though single readings can be large or run the other way. No potency is given beside an inconclusive call; the fits are too rough.

Test: qHTS Assay for Rab9 Promoter Activators; note: nearly all actives have a fitted effect of over 60% in size; for activation, negative = inhibition: % of control where 0% means no effect
Settings: Huh7 Rab9 promoter-luciferase reporter, luminescence, 24 h; series mostly up to 9.22 µM; activation, negative = inhibition: at the top concentration
Outline: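 Steps: seed 1500 Huh7 Rab9-luc cells per well, rest 2 h at 37 °C; add compound in DMSO; incubate 24 h; add luciferase reagent, 10 min ambient; read luminescence.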
Potency is the fitted concentration of half-maximal effect; tags give direction and shape of the fitted curve.

| Compound | activation, negative = inhibition | Potency |
| --- | --- | --- |
| COc1cc([N+](=O)[O-])ccc1NC(=O)COC(=O)CCOc1ccc(C)cc1 | inactive: -12.9% | – |
| O=C(c1cc(-c2ccc(Cl)cc2)on1)N1CCCCCC1 | – | active: 1.12 µM |
| CCOC(=O)C(=CNc1cccc(C)c1C)C(=O)OCC | inactive: -3.37% | – |
| O=C(NC(=S)NCCc1ccccn1)c1ccccc1 | – | inconclusive [activator, single point] |
| O=C(NCCc1ccccn1)c1cc2ccccc2o1 | – | inconclusive [activator, partial curve] |
| O=C(Nc1ccc2ccccc2c1)c1cccc(F)c1 | – | active: 0.708 µM |
| Cc1cccc(C(=O)NC(=O)Nc2c(C)cc(C)nc2C)c1 | – | inconclusive [activator, partial curve] |
| COC(=O)c1c(-c2cccs2)csc1NC(=O)c1cccnc1 | – | inconclusive [activator, partial curve] |
| COc1ccc(C(=O)N/N=C/C(=O)c2ccccc2)cc1 | – | inconclusive [activator, partial curve] |
| COc1ccc(/C=C2\NC(=S)N(CC3CCCO3)C2=O)c(OC)c1 (stereo unspecified) | – | inconclusive [activator, single point] |
| C=CCN(c1ccc(C(=O)OC)cc1)S(=O)(=O)c1ccccc1 | – | inconclusive [activator, single point] |
| Brc1ccc(-c2csc(N3CCOCC3)n2)cc1 | – | active: 3.98 µM |
| COc1ccc(CCN2C(=O)N[C@@H](C(C)C)C2=O)cc1 | inactive: -13.9% | – |
| COC(=O)COc1ccc2c(-c3cccc([N+](=O)[O-])c3)cc(=O)oc2c1 | – | inconclusive [activator, partial curve, poor fit] |
| Cc1cccc(-c2noc(-c3ccccc3C(=O)NCc3ccco3)n2)c1 | – | inconclusive [activator, partial curve] |
| CN=Cc1cc(-c2ccccc2)sc1O | – | inconclusive [activator, partial curve] |
| C/C(=N\Nc1ccc(Cl)c(C(=O)O)c1)c1cc2ccccc2o1 | – | inconclusive [activator, single point] |
| COC(=O)N/N=C/c1cc(N=Nc2ccccc2Cl)ccc1O | – | inconclusive [activator, single point] |
| Cc1cc(C(=O)COC(=O)c2ccc3c(c2)OCO3)c(C)n1Cc1cccs1 | – | active: 3.98 µM |
| Cc1cc(C(=O)COC(=O)CNC(=O)c2ccc(F)cc2)c(C)n1Cc1ccco1 | – | active: 3.16 µM |
| S=C(NNC(=S)Nc1ccccc1)Nc1ccccc1 | – | inconclusive [activator, partial curve] |
| CC(=O)N1CCN(C(=O)c2ccccc2NS(=O)(=O)c2ccc(F)cc2)CC1 | inactive: 1.11% | – |
| Cc1ccc(/C=C/C(=O)Nc2ccc([N+](=O)[O-])cc2)o1 | – | inconclusive [activator, partial curve] |
| CC1CCCCN1C(=O)CSc1nc2cc3c(cc2c(=O)n1Cc1ccc2c(c1)OCO2)OCO3 (stereo unspecified) | inactive: 5.27% | – |
| C=CCn1c(C)cc(C2=NNC(=Nc3ccc(C)cc3)SC2)c1C | – | inconclusive [activator, partial curve] |
| Cc1cc(C)nc(Nc2nc(=O)c3ccccc3s2)n1 | – | inconclusive [activator, partial curve] |

| Compound | activation, negative = inhibition | Potency |
| --- | --- | --- |
| CCN(CC)S(=O)(=O)c1ccc(C(=O)Oc2ccc3c(c2)OCO3)cc1 | inactive: 1.45% [at 1.84 µM] | – |
| CC(C)c1ccccc1NC(=O)COC(=O)c1c2c(nc3ccccc13)CCN(Cc1ccccc1)C2 | inactive: -2.75% | – |
| O=C(/C=C\Nc1ccccc1Br)c1ccc2c(c1)OCO2 | – | active: 0.447 µM |
| O=c1[nH]c2ccccc2nc1/C=C/c1ccc(O)cc1 | – | active: 3.55 µM |
| COc1cc(OC)cc(-c2cc3ccc(OC)cc3cn2)c1 | – | inconclusive [activator, single point] |
| Cc1cc(C)n(-c2nc(-c3cccc(Cl)c3)cs2)n1 | – | inconclusive [activator, partial curve] |
| O=C(Nc1ncc([N+](=O)[O-])s1)C1COc2ccccc2O1 (stereo unspecified) | – | inconclusive [activator, partial curve] |
| COc1ccc(-c2cc(-c3cccs3)c(C#N)c(SCC(=O)NCc3ccco3)n2)cc1 | inactive: -13.5% | – |
| O=C(Nc1ccc2nsnc2c1)N1CCCCC1 | inactive: 21.3% | – |
| COc1cc(CC(=O)OCC(=O)NC2CC2)cc(OC)c1OC | inactive: -0.736% | – |
| c1ccn(-c2ccc(-c3ccn[nH]3)cc2)c1 | – | inconclusive [activator, partial curve] |
| Cc1cccc(Nc2c([N+](=O)[O-])c(=O)oc3ccccc23)c1 | – | inconclusive [activator, single point] |
| CCCc1ccc2oc(C(=O)N3CCCC3)c(C)c2c1 | – | inconclusive [activator, single point] |
| O=C(CCc1ccccc1)Nc1ccccc1[N+](=O)[O-] | – | inconclusive [activator, partial curve] |
| O=C(Nc1cccc(O)c1)c1cccc(NC(=O)c2cccs2)c1 | inactive: 0.125% | – |
| Cc1nc(S(=O)(=O)Cc2ccc(Cl)cc2)nc2c1CCC2 | inactive: -28.9% | – |
| CC(CCc1ccccc1)NC(=O)c1cccs1 (stereo unspecified) | inactive: -9.42% | – |
| CCCn1cnc2cc(NC(=O)c3cccs3)ccc21 | – | active: 2.82 µM |
| CCOC(=O)N/N=C/c1ccccc1F | – | active: 2.82 µM |
| Cc1ccc2nc(-c3ccc(NC(=O)COCC(=O)O)cc3)sc2c1 | – | inconclusive [activator, partial curve] |
| Cc1cnc(C(=O)Nc2ccc(N3CCOCC3)cc2)cn1 | – | inconclusive [activator, partial curve] |
| CCOC(=O)c1cnc(-n2nc(C)cc2C)nc1N(C)C | – | active: 4.47 µM |
| COc1ccc(-c2cc3c(=O)n(CC(=O)NCc4ccc(F)cc4)ncn3n2)cc1 | – | inconclusive [activator, full curve] |
| O=C(OCC(=O)N1CCc2ccccc2C1)c1cccnc1Cl | – | inconclusive [activator, partial curve] |
| O=C(Nc1cccnc1)c1cc(-c2cccc(Cl)c2)on1 | inactive: 2.2% | – |
| Cc1c(C(=O)Nc2nccs2)oc2c(Cl)cccc12 | – | inconclusive [activator, partial curve] |

| Compound | activation, negative = inhibition | Potency |
| --- | --- | --- |
| O=[N+]([O-])c1cccc(-c2ccc(SCc3cccnc3)nn2)c1 | – | inconclusive [activator, partial curve, poor fit] |
| Oc1ccc(N=Nc2ccc3ccccc3c2)cc1 | – | inconclusive [activator, single point] |
| O=C(c1ccco1)n1nc(-c2ccccc2)nc1SCc1ccccc1 | – | inconclusive [activator, single point] |
| CCCCn1cnc2c(c1=O)c1nc3ccccc3nc1n2Cc1ccc2c(c1)OCO2 | – | inconclusive [activator, single point] |
| O=C(Nc1cccc(-c2cn3ccccc3n2)c1)c1cc2ccccc2oc1=O | – | inconclusive [activator, single point] |
| Cc1cc(NC(=O)c2ccoc2C)ccc1Br | – | inconclusive [activator, partial curve] |
| COc1cc(C(=O)Nc2ccc(C(C)=O)cc2)c(Br)c(OC)c1OC | – | inconclusive [activator, single point] |
| CCN1C(=O)/C(=C/C=C2\C=CN(CC)c3ccccc32)SC1=S | – | active: 3.16 µM |
| CN(C)/C=C/C(=O)c1ccc(-c2ccc(Cl)cc2Cl)o1 | – | active: 4.47 µM |
| COc1nc(-c2ccccc2)ccc1-c1noc(-c2ccco2)n1 | – | active: 3.98 µM |
| CCN(CC)C(=O)CSc1nc2ccc(NC(=O)CSc3nnc(COc4ccccc4C)n3C)cc2s1 | inactive: -0.583% | – |
| O=C(Nc1ccc(Cl)cc1C(F)(F)F)c1ccc(Cl)cc1 | – | inconclusive [activator, single point] |
| O=C(NCCOc1ccc(Cl)cc1)c1ccc2c(c1)OCCO2 | – | active: 3.55 µM |
| COc1ccc2nc3cccc(OC)c3nc2c1 | – | inconclusive [activator, single point] |
| COc1ccc(C(=O)Nc2ccccc2C(=O)N/N=C/c2ccncc2)cc1OC | – | inconclusive [activator, partial curve] |
| CC(C)Cc1cc(C(=O)NCc2ccco2)no1 | – | active: 3.98 µM |
| Cc1cc2c(C)nc(-c3ccccc3)nc2o1 | – | inconclusive [activator, single point] |
| CC(C)(C)NC(=O)Cn1nnc(-c2ccccc2Cl)n1 | – | inconclusive [activator, partial curve] |
| O=c1c(Cl)c(NCc2ccccc2Cl)cnn1C12CC3CC(CC(C3)C1)C2 | inactive: -4.04% | – |
| CC(=O)c1c(C)[nH]c(C(=O)Nc2nccs2)c1C | – | active: 2.82 µM |
| CC(=O)N1N=C(c2ccc(C)o2)CC1c1ccc(Br)cc1 (stereo unspecified) | – | inconclusive [activator, partial curve] |
| COC(=O)c1cccc(NC(=O)/C=C/c2cccc([N+](=O)[O-])c2)c1 | – | inconclusive [activator, partial curve] |
| CCOc1ccc(OCc2ccc(C(=O)NCc3ccncc3)o2)cc1 | – | inconclusive [activator, partial curve] |
| CCOc1ccc(C(=O)N(CC)CC(=O)Nc2ccc3c(c2)OCCO3)cc1 | – | inconclusive [activator, single point] |
